# Measured values reported in ChEMBL document CHEMBL1201862, “PubChem BioAssay data set” (2004).
#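 Five compound concentrations were applied to cells in 96-well plates for 48 hours; endpoints were derived by simple linear interpolation of the resulting dose-response curve. GI50 = concentration required for 50% inhibition of growth.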 Active and inactive are the calls of the source. No stated cut-off is given here; in the data, active = GI50 up to about 1.1 µM and inactive = higher.
# Test system: NCI-H322M
# Assay: DTP human tumour cell line panel, 48 h
row,Compound,GI50
1,COc1ccc(C2=C(N)c3ccccc3C2=O)cc1,inactive: > 100 µM
2,N#Cc1c(NC(=O)C(F)(F)F)sc2c3c(=O)c4ccccc4c(=O)c=3oc3ccccc3c12,inactive: 19.5 µM
3,O=C(O)Cc1c(O)ccc2ccccc12,inactive: > 100 µM
4,CCOC(=O)CCc1ccc(NC(=O)/C=C/c2ccc([N+](=O)[O-])o2)cc1,inactive: 1.8 µM
5,CN(C)CCCNC(=O)c1cn2c(ccc3sc4ccccc4c(=O)c32)n1,inactive: 6.21 µM
6,O=C(OCCC12CC3CC(CC(C3)C1)C2)c1ccc(NCc2cc(O)ccc2O)cc1,inactive: 8.73 µM
7,CN1C(=O)c2c(ccc3c2OCO3)C2C(O)Cc3cc4c(cc3C21)OCO4 (centres undefined),inactive: 4.93 µM
8,CC(C)(C)C1CCN(C(=O)c2ccccc2)CC1,inactive: > 100 µM
9,CCOP(=O)(OCC)OC(C#N)c1ccc(-c2ccccc2)cc1 (centres undefined),inactive: 71.8 µM
10,O=C1OC(Cl)C(N=P(c2ccccc2)(c2ccccc2)c2ccccc2)=C1Cl (centres undefined),inactive: > 100 µM
11,COc1cccc(NC(=O)CC(=O)NN)c1,inactive: > 100 µM
12,COC(=O)c1c2c(cc3c1CC1(Cc4cc5c(c(C=O)c4C1)CCCC5)C3)CCCC2 (centres undefined),inactive: 95.1 µM
13,C=C(C)[C@@H]1C[C@H]2O[C@](O)(C(=C)CC(=O)/C=C(/C)C[C@@H]3OC(=O)[C@]24O[C@@H]34)[C@H]1O,inactive: > 100 µM
14,CCCCOc1c(C(=O)O)cc(Br)cc1C(=O)O,inactive: > 100 µM
15,C=C1CN(C(=O)c2cc3cc(OC)c(OC)c(OC)c3[nH]2)c2cc([N+](=O)[O-])ccc21,inactive: > 100 µM
16,CC(=O)OC(Cc1c(O)c2c(C)cccc2oc1=O)C(C)(C)O (centres undefined),inactive: > 100 µM
17,CCNC(=O)COc1ccc(Cl)c(C)c1,inactive: > 100 µM
18,CCc1c(CNC2=NCCN2)c(CC)c(CNC2=NCCN2)c(CC)c1CNC1=NCCN1,inactive: > 100 µM
19,COc1ccc(/C=C/c2ccnc3ccccc23)cc1OC,inactive: 28.4 µM
20,CC(=O)OCC1OC(O[C@@H]2C[C@H]3C(C)(C)[C@@H](OC(C)=O)CC[C@]3(C)[C@H]3CC[C@]45C[C@]4(CC[C@H]5[C@@H](C)C[C@@H](O)[C@H](O)C(C)(C)F)[C@@]32C)C(O)C(O)C1O (some centres undefined),inactive: 1.64 µM
21,CC(C)[S+]1C2=C(CC(C)(C)CC2=O)[N-]c2ccccc21 (centres undefined),inactive: > 100 µM
22,CC(C)(C)c1cc(CCC(=O)Nc2ccc(Cl)cc2)nc(NC#N)n1,inactive: > 100 µM
23,Cc1ccc2c(c1)C(=O)N1CCC[C@H]1C=N2,inactive: 32.8 µM

row,Compound,GI50
1,CC(=O)c1cc(I)c(O)c2ncccc12,inactive: 5.16 µM
2,C=COC(=O)N1C2CCCC(Cl)(C(C)=O)C1CC2 (centres undefined),inactive: > 100 µM
3,CC(=O)O/C=C(/C=C/OC(C)=O)C(C/C=C(\C)C#CC=C(C)C)OC(C)=O (centres undefined),inactive: 68.4 µM
4,COC(=O)Cc1cc2c(cc1C(=O)c1ccc(N)cc1)OCO2,inactive: > 31.4 µM
5,COc1cc2c3c(c1OC)C1(C=CC(=O)C=C1)CC3N(C(=O)OC(C)(C)C(Cl)(Cl)Cl)CC2 (centres undefined),inactive: 16.3 µM
6,CSC(SC)=C(C(=O)O)P(=O)(O)O,inactive: > 100 µM
7,O=C(/C=C/c1ccc2c(c1)OCO2)CC(=O)/C=C/c1ccc2c(c1)OCO2,inactive: > 100 µM
8,NC(=S)N/N=C(\Cc1nc2ccc(Cl)cc2nc1O)C(=O)Nc1ccc(Cl)cc1,inactive: > 100 µM
9,Brc1c2nc3ccccc3nc2n2ccc3ccccc3c12,inactive: > 100 µM
10,O=C(O)c1ccccc1NC(=O)C1CCCCC1,inactive: > 100 µM
11,CC12OOC(c3ccccc31)c1c2ccc2ccccc12 (centres undefined),inactive: 16.5 µM
12,Nc1nc(Cl)cc(/N=N\c2ccccc2)n1,inactive: 41.7 µM
13,O=P1(N(CCCl)CCCl)Oc2c(Cl)cc(Cl)c(Cl)c2Cc2c(Cl)c(Cl)cc(Cl)c2O1,inactive: 53.3 µM
14,Cc1ccc2c(c1C)CC1(Cc3c(C)ccc(C)c3C1=O)C2=O (centres undefined),inactive: > 100 µM
15,Cc1cc(Br)cc(C)c1NC(=O)C(=O)CC(=O)c1sc(-n2nc(-c3ccccc3)cc2-c2ccccc2)nc1C,inactive: 82.4 µM
16,O=C(O)c1ccc(N/C(=C(/C(Cl)=C(Cl)Cl)[N+](=O)[O-])n2nnc3ccccc32)cc1,inactive: > 100 µM
17,CC(=O)OC/C=C(\C)CCC(Br)C(C)(C)Br (centres undefined),inactive: > 10 µM
18,CC(=O)Nc1ccc2c3c(cc(O)c2c1)N(C(=O)CCCC(=O)N1CC(CCl)c2c1cc(O)c1cc(NC(C)=O)ccc21)CC3CCl (centres undefined),active: 0.0223 µM
19,CC(=O)N(CCCCNC(=O)C(F)(F)F)CCCNC(=O)C(F)(F)F,inactive: > 100 µM
20,Cc1nnc(N)nc1C/C=C/C(Sc1ccc(Cl)cc1)c1ccccc1 (centres undefined),inactive: 4.71 µM
21,O=C(CCN1CCOCC1)/C(=C/c1ccccc1)c1ccccc1,inactive: 15.3 µM
22,COC(=O)C1=C(OC(=O)/C(=C/c2ccc(Cl)cc2Cl)c2ccc(Cl)cc2Cl)C(C(=O)OC)[C@@]2(O)[C@@H](C(=O)OC)[C@H](C)C[C@@H]1[C@@H]2C(=O)OC (some centres undefined),inactive: > 100 µM
23,O=C(NC(=S)Nc1ccc(Br)cc1)c1ccc2c(c1)Sc1ccccc1O2,inactive: > 100 µM

row,Compound,GI50
1,CN1B(c2ccccc2)N(C)C(=O)N(C)C1=O,inactive: > 100 µM
2,CCNC(=O)OCc1c(COC(=O)NCC)c(-c2ccc(Cl)c(Cl)c2)n2c1CCC2,inactive: 17.3 µM
3,C=CCC1C(=O)C(C(=O)OC)N2CCc3c([nH]c4ccccc34)C12 (centres undefined),inactive: > 100 µM
4,CN1c2ccccc2SC2C(c3ccccc3)=NOC21 (centres undefined),inactive: > 100 µM
5,O=C(c1c(F)c(F)c(F)c(F)c1F)c1c(F)c(F)c(F)c(F)c1F,inactive: 3.97 µM
6,Cc1noc(/N=C2\C=C(O)C(=O)c3ccccc32)c1C,inactive: 12.9 µM
7,ON=C1CCCCC(=NO)CCCC1,inactive: > 100 µM
8,Cc1nccn1S(=O)(=O)c1ccc(Cl)cc1,inactive: 52.4 µM
9,O=C1OCOC2(CCCC2)C1c1ccccc1 (centres undefined),inactive: > 100 µM
10,CCCCCCCCCCCCCCCCCCNc1ccn(C2OC(COP(=O)(O)OCC3OC(n4ccc(NC(=O)CCCCCCCCCCCCCCCCC)nc4=O)C(OC(C)=O)C3OC(C)=O)C(OC(C)=O)C2OC(C)=O)c(=O)n1 (centres undefined),inactive: > 100 µM
11,N=C(CCl)NC1CN2CCC1CC2 (centres undefined),inactive: > 100 µM
12,C/C(=N\NC(=S)Nc1ccc(C(=O)O)cc1)c1ccccn1,inactive: 17.9 µM
13,O=C1c2ccccc2C2(c3ccc(Cl)cc3)N[C@@H]3CCCC[C@@H]3N12 (some centres undefined),inactive: > 100 µM
14,O=c1c2ccccc2n2cnc3ccc(NCCNCCO)c1c32,inactive: 1.4 µM
15,O=C1CCC2(CC1CC[S+]([O-])c1ccccc1)OCCO2 (centres undefined),inactive: > 100 µM
16,CC(C)(C)NCC(COc1ccc([N+](=O)[O-])cc1)OP(c1ccccc1)c1ccccc1 (centres undefined),inactive: 56.6 µM
17,CC1CCC2(CC1)NC1=C(CC(C)CC1)C1=C2CC(C)CC1 (centres undefined),inactive: 23.8 µM
18,COc1cccc(NC(=O)/C(CC(=O)CC(c2ccccc2)c2c(O)c3ccccc3oc2=O)=N\NC(C)(C)C)c1OC (centres undefined),inactive: 45.1 µM
19,O=C1Oc2ccccc2C(=O)/C1=C/N1C(=O)/C(=C/c2ccc3c(c2)OCO3)SC1=S,inactive: 28.4 µM
20,CS(=O)(=O)c1nc(-c2cc3c(c(S(C)(=O)=O)n2)CCC3)cc2c1CCCCC2,inactive: > 100 µM
21,Cc1coc2c1C[C@@]1(C)[C@H](CCC[C@@H]1C)[C@H]2O,inactive: > 100 µM
22,CCOC(=O)C(SCCO)C(C(=O)OCC)n1ccc(=O)[nH]c1=O (centres undefined),inactive: > 100 µM
23,C=C1C[C@@H]2O[C@H]3[C@H]4[C@@H](C[C@@H](C)[C@@H](OC(C)=O)[C@H]42)[C@@H](C)CO[C@@]3(C)[C@H](OC(=O)CCCCCCC)CC1=O,inactive: 24.3 µM

row,Compound,GI50
1,O=C(CC(=O)c1cccc2ccccc12)C(=O)Nc1nccs1,inactive: > 100 µM
2,COC(=O)C1=C(C(=O)OC)C2(C)OC1C(=O)C21CC1 (centres undefined),inactive: 71.6 µM
3,COc1cc(OC)c2c(c1)OC(c1cccnc1)C(c1ccccc1)C2=O (centres undefined),inactive: > 100 µM
4,Cc1cccc(C(O)c2cccnc2)c1O (centres undefined),inactive: > 100 µM
5,Nc1c(-c2cccc3ccccc23)c2ccc([N+](=O)[O-])cc2c(=O)n1-c1nc2ccccc2s1,inactive: 5.32 µM
6,O=C(c1ccccc1)c1oc2ccc(Br)cc2c1-c1cnn(-c2ccccc2)c1,inactive: > 100 µM
7,CC(=O)OCCOCNC(=S)N/N=C/c1ccc([N+](=O)[O-])o1,inactive: > 100 µM
8,CC1=C(C(=O)Nc2ccccc2C)C(c2ccc(C3C(C(=O)Nc4ccccc4C)=CNC=C3C(=O)Nc3ccccc3C)cc2)C(C(=O)Nc2ccccc2C)=C(C)N1,inactive: 15.3 µM
9,Cn1c(-c2ccco2)ccc1-c1ccc(C=O)o1,inactive: > 100 µM
10,COC(=O)c1ccc(NCC2=CC(=O)C=CC2=O)cc1,inactive: 17.1 µM
11,O=C(NCCN1CCOCC1)c1ccc2cc(C(=O)N3CC(CCl)c4ccc([N+](=O)[O-])cc43)[nH]c2c1 (centres undefined),inactive: 27 µM
12,COc1cc(-c2ccc(/N=N/c3ccc4c(S(=O)(=O)O)cc(S(=O)(=O)O)c(N)c4c3O)c(OC)c2)ccc1/N=N/c1ccc2c(S(=O)(=O)O)cc(S(=O)(=O)O)c(N)c2c1O,inactive: > 100 µM
13,CC1=C2CC[C@@]3(C)C(=CCC3O)C2(C)CCC1=O (some centres undefined),inactive: > 100 µM
14,CN(Cc1cnc2nc(N)nc(N)c2n1)c1ccc(C(=O)NCCCS(=O)(=O)O)cc1,inactive: > 100 µM
15,O=c1c(C(c2ccco2)c2c(O)oc3ccccc3c2=O)c(O)oc2ccccc12,inactive: > 100 µM
16,COc1ccc(-c2oc3c(CC(=O)O)cccc3c(=O)c2OC)cc1,inactive: > 100 µM
17,C[C@H](CCC(=O)O)[C@H]1CC[C@H]2[C@@H]3C(=O)C[C@@H]4C[C@H](O)CC[C@]4(C)[C@H]3C[C@H](O)[C@]12C,inactive: > 100 µM
18,O=C(O)CN(c1ccccc1)S(=O)(=O)c1ccc(NC(=O)c2ccccc2)cc1,inactive: > 100 µM
19,Oc1ccc(-c2nc3ccc(Cl)cc3s2)cc1,inactive: 17.5 µM
20,COc1cccc(/C=C(/C(=O)O)c2cc(OC)c(OC)c(OC)c2)c1,inactive: > 100 µM
